In US20260166128A1, “HUMAN AMYLIN ANALOG, AND DERIVATIVE THEREOF AND USE THEREOF” (priority 2022, published 2026):
At least one peptide structure holds a part that was inferred or is arguable (an end, a ring closure or a residue). Numbered stars: 1 amine (or outer) side, 2 acyl side, 3 side chain; on linkers, the order of the positions; unused ones are H or OH. Bridge positions count the residues as written; N and C are the ends. Square brackets hold non-standard residues; d marks the D form. Side chains are listed from the residue outwards. Peptide text beside a SMILES is read from it. * marks the point of attachment. C20 diacid = O=C(O)CCCCCCCCCCCCCCCCCCC(=O)*; γGlu = O=C(O)[C@H](CCC(=O)[*:2])N[*:1]; Hyp = O=C(O)[C@@H]1C[C@@H](O)CN1; hArg = N=C(N)NCCCC[C@H](N)C(=O)O; Orn = NCCC[C@H](N)C(=O)O; Dab = NCC[C@H](N)C(=O)O; Dap = NC[C@H](N)C(=O)O

Assay: Freeze-thaw stability of derivatives (freeze-thaw yield by liquid chromatography)
Type: physicochemical
Details: for Dissolution property: appearance after dissolution at 0.2 mg/ml in 20 mM phosphate buffer solution (PB) (pH 7.0); for Freeze storage property: appearance after overnight storage at −20° C. and thawing to room temperature, 0.2 mg/ml in 20 mM PB (pH 7.0); for Freeze storage yield: concentration of polypeptide after freezing and thawing / concentration before, by liquid chromatography, −20° C. overnight
Summary of the method: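 Freeze-thaw yield is the ratio of peptide concentration after versus before one overnight −20° C freeze and room-temperature thaw, both quantified by RP-HPLC of supernatant after centrifugation. Samples were 0.2 mg/ml freeze-dried derivative in 20 mM PB, pH 7.0.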

Row | SMILES | Dissolution property | Freeze storage property | Freeze storage yield [%]
1 | CC[C@H](C)[C@H](NC(=O)[C@@H]1CCCN1C(=O)CNC(=O)[C@H](Cc1ccccc1)NC(=O)[C@H](CC(N)=O)NC(=O)[C@H](CC(N)=O)NC(=O)[C@H](CO)NC(=O)[C@H](CO)NC(=O)[C@H](Cc1c[nH]cn1)NC(=O)[C@H](CCCNC(=N)N)NC(=O)[C@H](CC(C)C)NC(=O)[C@H](Cc1ccccc1)NC(=O)[C@H](CC(=O)O)NC(=O)[C@H](C)NC(=O)[C@H](CC(C)C)NC(=O)[C@H](CCCNC(=N)N)NC(=O)[C@H](CCC(N)=O)NC(=O)[C@@H](NC(=O)[C@H](C)NC(=O)[C@@H]1CSSC[C@H](NC(=O)[C@@H](N)CCCCNC(=O)CC[C@H](NC(=O)CCCCCCCCCCCCCCCCCCC(=O)O)C(=O)O)C(=O)N[C@@H](CC(N)=O)C(=O)N[C@@H]([C@@H](C)O)C(=O)N[C@@H](C)C(=O)N[C@@H]([C@@H](C)O)C(=O)N1)[C@@H](C)O)C(=O)N[C@@H](CC(C)C)C(=O)N1CCC[C@H]1C(=O)N1CCC[C@H]1C(=O)N[C@H](C(=O)N[C@@H](CC(N)=O)C(=O)N[C@H](C(=O)NCC(=O)N[C@@H](CO)C(=O)N[C@@H](CC(N)=O)C(=O)N[C@H](C(=O)N1C[C@H](O)C[C@H]1C(N)=O)[C@@H](C)O)C(C)C)[C@@H](C)O [PD068] (H-K([γGlu-C20 diacid])CNTATCATQRLADFLRHSSNNFGPILPPTNVGSNT[Hyp]-NH2; disulfide 2-7) | Clear | Clear | 97.55
2 | CC[C@H](C)[C@H](NC(=O)[C@@H]1CCCN1C(=O)[C@H](CCCCNC(=O)CC[C@H](NC(=O)CCCCCCCCCCCCCCCCCCC(=O)O)C(=O)O)NC(=O)[C@H](CC(C)C)NC(=O)[C@H](CC(N)=O)NC(=O)[C@H](CC(N)=O)NC(=O)[C@H](CO)NC(=O)[C@H](CO)NC(=O)[C@H](Cc1c[nH]cn1)NC(=O)[C@H](CCCNC(=N)N)NC(=O)[C@H](CC(C)C)NC(=O)[C@H](Cc1ccccc1)NC(=O)[C@H](CC(=O)O)NC(=O)[C@H](C)NC(=O)[C@H](CC(C)C)NC(=O)[C@H](CCCNC(=N)N)NC(=O)[C@H](CCC(N)=O)NC(=O)[C@@H](NC(=O)[C@H](C)NC(=O)[C@@H]1CSSC[C@H](NC(=O)[C@@H](N)CN)C(=O)N[C@@H](CC(N)=O)C(=O)N[C@@H]([C@@H](C)O)C(=O)N[C@@H](C)C(=O)N[C@@H]([C@@H](C)O)C(=O)N1)[C@@H](C)O)C(=O)N[C@@H](CC(C)C)C(=O)N1CCC[C@H]1C(=O)N1CCC[C@H]1C(=O)N[C@H](C(=O)N[C@@H](CC(N)=O)C(=O)N[C@H](C(=O)NCC(=O)N[C@@H](CO)C(=O)N[C@@H](CC(N)=O)C(=O)N[C@H](C(=O)N1C[C@H](O)C[C@H]1C(N)=O)[C@@H](C)O)C(C)C)[C@@H](C)O [PD073] (H-[Dap]CNTATCATQRLADFLRHSSNNLK([γGlu-C20 diacid])PILPPTNVGSNT[Hyp]-NH2; disulfide 2-7) | Clear | Clear | 155.32
3 | CC[C@H](C)[C@H](NC(=O)[C@@H]1CCCN1C(=O)[C@H](CCCCNC(=O)CC[C@H](NC(=O)CCCCCCCCCCCCCCCCCCC(=O)O)C(=O)O)NC(=O)[C@H](CC(C)C)NC(=O)[C@H](CC(N)=O)NC(=O)[C@H](CC(N)=O)NC(=O)[C@H](CO)NC(=O)[C@H](CO)NC(=O)[C@H](Cc1c[nH]cn1)NC(=O)[C@H](CCCNC(=N)N)NC(=O)[C@H](CC(C)C)NC(=O)[C@H](Cc1ccccc1)NC(=O)[C@H](CC(=O)O)NC(=O)[C@H](C)NC(=O)[C@H](CC(C)C)NC(=O)[C@H](CCCNC(=N)N)NC(=O)[C@H](CCC(N)=O)NC(=O)[C@@H](NC(=O)[C@H](C)NC(=O)[C@@H]1CSSC[C@H](NC(=O)[C@@H](N)CCN)C(=O)N[C@@H](CC(N)=O)C(=O)N[C@@H]([C@@H](C)O)C(=O)N[C@@H](C)C(=O)N[C@@H]([C@@H](C)O)C(=O)N1)[C@@H](C)O)C(=O)N[C@@H](CC(C)C)C(=O)N1CCC[C@H]1C(=O)N1CCC[C@H]1C(=O)N[C@H](C(=O)N[C@@H](CC(N)=O)C(=O)N[C@H](C(=O)NCC(=O)N[C@@H](CO)C(=O)N[C@@H](CC(N)=O)C(=O)N[C@H](C(=O)N1C[C@H](O)C[C@H]1C(N)=O)[C@@H](C)O)C(C)C)[C@@H](C)O [PD074] (H-[Dab]CNTATCATQRLADFLRHSSNNLK([γGlu-C20 diacid])PILPPTNVGSNT[Hyp]-NH2; disulfide 2-7) | Clear | Clear | 66.34
4 | CC[C@H](C)[C@H](NC(=O)[C@@H]1CCCN1C(=O)[C@H](CCCCNC(=O)CC[C@H](NC(=O)CCCCCCCCCCCCCCCCCCC(=O)O)C(=O)O)NC(=O)[C@H](CC(C)C)NC(=O)[C@H](CC(N)=O)NC(=O)[C@H](CC(N)=O)NC(=O)[C@H](CO)NC(=O)[C@H](CO)NC(=O)[C@H](Cc1c[nH]cn1)NC(=O)[C@H](CCCNC(=N)N)NC(=O)[C@H](CC(C)C)NC(=O)[C@H](Cc1ccccc1)NC(=O)[C@H](CC(=O)O)NC(=O)[C@H](C)NC(=O)[C@H](CC(C)C)NC(=O)[C@H](CCCNC(=N)N)NC(=O)[C@H](CCC(N)=O)NC(=O)[C@@H](NC(=O)[C@H](C)NC(=O)[C@@H]1CSSC[C@H](NC(=O)[C@@H](N)CCCN)C(=O)N[C@@H](CC(N)=O)C(=O)N[C@@H]([C@@H](C)O)C(=O)N[C@@H](C)C(=O)N[C@@H]([C@@H](C)O)C(=O)N1)[C@@H](C)O)C(=O)N[C@@H](CC(C)C)C(=O)N1CCC[C@H]1C(=O)N1CCC[C@H]1C(=O)N[C@H](C(=O)N[C@@H](CC(N)=O)C(=O)N[C@H](C(=O)NCC(=O)N[C@@H](CO)C(=O)N[C@@H](CC(N)=O)C(=O)N[C@H](C(=O)N1C[C@H](O)C[C@H]1C(N)=O)[C@@H](C)O)C(C)C)[C@@H](C)O [PD075] (H-[Orn]CNTATCATQRLADFLRHSSNNLK([γGlu-C20 diacid])PILPPTNVGSNT[Hyp]-NH2; disulfide 2-7) | Clear | Clear | 56.70
5 | CC[C@H](C)[C@H](NC(=O)[C@@H]1CCCN1C(=O)[C@H](CCCCNC(=O)CC[C@H](NC(=O)CCCCCCCCCCCCCCCCCCC(=O)O)C(=O)O)NC(=O)[C@H](CC(C)C)NC(=O)[C@H](CC(N)=O)NC(=O)[C@H](CC(N)=O)NC(=O)[C@H](CO)NC(=O)[C@H](CO)NC(=O)[C@H](Cc1c[nH]cn1)NC(=O)[C@H](CCCNC(=N)N)NC(=O)[C@H](CC(C)C)NC(=O)[C@H](Cc1ccccc1)NC(=O)[C@H](CC(=O)O)NC(=O)[C@H](C)NC(=O)[C@H](CC(C)C)NC(=O)[C@H](CCCNC(=N)N)NC(=O)[C@H](CCC(N)=O)NC(=O)[C@@H](NC(=O)[C@H](C)NC(=O)[C@@H]1CSSC[C@H](NC(=O)[C@@H](N)CCCCN)C(=O)N[C@@H](CC(N)=O)C(=O)N[C@@H]([C@@H](C)O)C(=O)N[C@@H](C)C(=O)N[C@@H]([C@@H](C)O)C(=O)N1)[C@@H](C)O)C(=O)N[C@@H](CC(C)C)C(=O)N1CCC[C@H]1C(=O)N1CCC[C@H]1C(=O)N[C@H](C(=O)N[C@@H](CC(N)=O)C(=O)N[C@H](C(=O)NCC(=O)N[C@@H](CO)C(=O)N[C@@H](CC(N)=O)C(=O)N[C@H](C(=O)N1C[C@H](O)C[C@H]1C(N)=O)[C@@H](C)O)C(C)C)[C@@H](C)O [PD076] (H-KCNTATCATQRLADFLRHSSNNLK([γGlu-C20 diacid])PILPPTNVGSNT[Hyp]-NH2; disulfide 2-7) | Clear | Clear | 52.18
6 | CC[C@H](C)[C@H](NC(=O)[C@@H]1CCCN1C(=O)[C@H](CCCCNC(=O)CC[C@H](NC(=O)CCCCCCCCCCCCCCCCCCC(=O)O)C(=O)O)NC(=O)[C@H](CC(C)C)NC(=O)[C@H](CC(N)=O)NC(=O)[C@H](CC(N)=O)NC(=O)[C@H](CO)NC(=O)[C@H](CO)NC(=O)[C@H](Cc1c[nH]cn1)NC(=O)[C@H](CCCNC(=N)N)NC(=O)[C@H](CC(C)C)NC(=O)[C@H](Cc1ccccc1)NC(=O)[C@H](CC(=O)O)NC(=O)[C@H](C)NC(=O)[C@H](CC(C)C)NC(=O)[C@H](CCCNC(=N)N)NC(=O)[C@H](CCC(N)=O)NC(=O)[C@@H](NC(=O)[C@H](C)NC(=O)[C@@H]1CSSC[C@H](NC(=O)[C@@H](N)CCCCNC(=N)N)C(=O)N[C@@H](CC(N)=O)C(=O)N[C@@H]([C@@H](C)O)C(=O)N[C@@H](C)C(=O)N[C@@H]([C@@H](C)O)C(=O)N1)[C@@H](C)O)C(=O)N[C@@H](CC(C)C)C(=O)N1CCC[C@H]1C(=O)N1CCC[C@H]1C(=O)N[C@H](C(=O)N[C@@H](CC(N)=O)C(=O)N[C@H](C(=O)NCC(=O)N[C@@H](CO)C(=O)N[C@@H](CC(N)=O)C(=O)N[C@H](C(=O)N1C[C@H](O)C[C@H]1C(N)=O)[C@@H](C)O)C(C)C)[C@@H](C)O [PD077] (H-[hArg]CNTATCATQRLADFLRHSSNNLK([γGlu-C20 diacid])PILPPTNVGSNT[Hyp]-NH2; disulfide 2-7) | Clear | Clear | 85.60
7 | CC[C@H](C)[C@H](NC(=O)[C@@H]1CCCN1C(=O)[C@H](CCCCNC(=O)CC[C@H](NC(=O)CCCCCCCCCCCCCCCCCCC(=O)O)C(=O)O)NC(=O)[C@H](CC(C)C)NC(=O)[C@H](CC(N)=O)NC(=O)[C@H](CC(N)=O)NC(=O)[C@H](CO)NC(=O)[C@H](CO)NC(=O)[C@H](Cc1c[nH]cn1)NC(=O)[C@H](CCCNC(=N)N)NC(=O)[C@H](CC(C)C)NC(=O)[C@H](Cc1ccccc1)NC(=O)[C@H](CC(=O)O)NC(=O)[C@H](C)NC(=O)[C@H](CC(C)C)NC(=O)[C@H](CCCNC(=N)N)NC(=O)[C@H](CCC(N)=O)NC(=O)[C@@H](NC(=O)[C@H](C)NC(=O)[C@@H]1CSSC[C@H](NC(=O)[C@@H](N)Cc2c[nH]cn2)C(=O)N[C@@H](CC(N)=O)C(=O)N[C@@H]([C@@H](C)O)C(=O)N[C@@H](C)C(=O)N[C@@H]([C@@H](C)O)C(=O)N1)[C@@H](C)O)C(=O)N[C@@H](CC(C)C)C(=O)N1CCC[C@H]1C(=O)N1CCC[C@H]1C(=O)N[C@H](C(=O)N[C@@H](CC(N)=O)C(=O)N[C@H](C(=O)NCC(=O)N[C@@H](CO)C(=O)N[C@@H](CC(N)=O)C(=O)N[C@H](C(=O)N1C[C@H](O)C[C@H]1C(N)=O)[C@@H](C)O)C(C)C)[C@@H](C)O [PD078] (H-HCNTATCATQRLADFLRHSSNNLK([γGlu-C20 diacid])PILPPTNVGSNT[Hyp]-NH2; disulfide 2-7) | Clear | Clear | 67.85
